From US20250205158A1, “BIODEGRADABLE LIPIDS AND FORMULATIONS FOR DELIVERY OF MRNA” (Massachusetts Institute of Technology, priority 2023, published 2025)

Tested on: mice
Experiment: DiI-labeled LNP uptake in muscle and local draining lymph node cells (flow cytometry)
Conditions: female BALB/cJ mice, IM, fluorescently labeled LNPs
Source text: Immune cell uptake, expression, and germinal center responses. To understand the factors contributing to the enhanced vaccine response of AMG1541 LNPs, the local biodistribution and resultant protein expression following intramuscular injection was characterized. Immune cell uptake following vaccination is the first step in initiating vaccine responses as it activates innate immune pathways, facilitating further immune cell recruitment and activation.^40-42 The uptake of LNPs was characterized by dosing female BALB/cJ mice IM with fluorescently labeled AMG1541 or SM-102 LNPs and then isolating cells from the muscle and local draining lymph node (LDLN) (FIGS. 15A-15C).
LNP biodistribution and expression characterization.

CCCCCC/C=C\CCCC(=O)OCC(O)CN1CCN(CC(O)COC(=O)CCC/C=C\CCCCCC)CCN(CC(O)COC(=O)CCC/C=C\CCCCCC)CCN(CC(O)COC(=O)CCC/C=C\CCCCCC)CCN(CC(O)COC(=O)CCC/C=C\CCCCCC)CCN(CC(O)COC(=O)CCC/C=C\CCCCCC)CC1 (centres unmarked) [AMG1541]
LNP uptake in cells isolated from muscle versus SM-102: higher uptake in CD45- cells, macrophages, and neutrophils | LNP uptake in cells of the local draining lymph node versus SM-102: significantly higher uptake in several key APC subsets
